Measured values from the supplement of paper PMC8285479.
Where a name gives a salt, the structure may show the parent alone. ± gives the standard deviation of the averaged measurements. Over roughly 1,900 compounds, “normalised cell viability (NPI; 0 = phenylarsine oxide control, 1 = DMSO control)” has its median near 1; the lowest 2% begin near 0.039. This is one part of the list.

Tested on: NCI-H1944
Assay: normalised cell viability (NPI; 0 = phenylarsine oxide control, 1 = DMSO control) (fraction of DMSO control); NCI-H1944 is a non-small cell lung cancer line; higher = more viable cells (less compound toxicity)
Settings: 6 days
[1] = glucocorticoid arm: hydrocortisone 2.75 uM co-treatment, compound 1 µM
[2] = glucocorticoid arm: hydrocortisone 2.75 uM co-treatment, compound 5 µM
[3] = glucocorticoid arm: hydrocortisone 2.75 uM pre-treated 2 days and continued, compound 1 µM
[4] = glucocorticoid arm: hydrocortisone 2.75 uM pre-treated 2 days and continued, compound 5 µM
[5] = glucocorticoid arm: vehicle, compound 1 µM
[6] = glucocorticoid arm: vehicle, compound 5 µM
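Also: CTB read-out in 384-well plates, mean of triplicate wells, normalised per plate against 1 µM phenylarsine oxide and 0.1% DMSO, compounds added 24 h after seeding.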

SMILES | normalised cell viability [1] | normalised cell viability [2] | normalised cell viability [3] | normalised cell viability [4] | normalised cell viability [5] | normalised cell viability [6]
CN1CC[C@H](c2c(O)cc(O)c3c(=O)cc(-c4ccccc4Cl)oc23)[C@H](O)C1 [Flavopiridol (Alvocidib)] | 0.0613 ± 0.0073 | 0.0242 ± 0.0072 | 0.109 ± 0.015 | 0.0932 ± 0.025 | 0.0171 ± 0.0043 | 0.00703 ± 0.0012
CN1CC[C@H](c2c(O)cc(O)c3c(=O)cc(-c4ccccc4Cl)oc23)[C@H](O)C1 [Flavopiridol hydrochloride] | 0.0447 ± 0.0058 | 0.0238 ± 0.0012 | 0.066 ± 0.0098 | 0.0883 ± 0.016 | 0.0103 ± 0.0015 | 0.00802 ± 0.0019
CC(N)=O [Acetamide] | 0.974 ± 0.013 | 0.955 ± 0.046 | 0.9897 ± 0.0032 | 0.948 ± 0.02 | 0.9883 ± 0.009 | 0.9837 ± 0.0085
CC(C)(C)NC[C@H](O)COc1nsnc1N1CCOCC1 [Timolol Maleate] | 1.02 ± 0.01 | 1.04 ± 0.025 | 1.02 ± 0.017 | 1.023 ± 0.0058 | 1.007 ± 0.0058 | 1.01
CC(C)(C)NC[C@H](O)COc1nsnc1N1CCOCC1 [S(-)-Timolol maleate] | 1.017 ± 0.0058 | 1.03 ± 0.021 | 0.836 ± 0.32 | 1.03 ± 0.011 | 1.01 ± 0.01 | 1.013 ± 0.0058
C[C@]12CCC(=O)C=C1CC[C@@H]1[C@@H]2[C@@H](O)C[C@@]2(C)[C@H]1CC[C@]2(O)C(=O)COC(=O)CCC(=O)O [Hydrocortisone 21-hemisuccinate sodium salt] | 1.007 ± 0.0058 | 1.017 ± 0.0058 | 1.01 ± 0.01 | 1.04 ± 0.021 | 0.921 ± 0.017 | 0.832 ± 0.044
FC(F)(F)c1ccccc1-n1ccnc1 [1-[2-(Trifluoromethyl)phenyl]imidazole] | 1 ± 0.014 | 0.992 ± 0.025 | 1 ± 0.03 | 0.996 ± 0.013 | 1.02 | 1.02 ± 0.01
O=C(c1cccc(Cl)c1F)N1CCN(Cc2cccc(Nc3nccs3)n2)CC1 | 0.951 ± 0.018 | 1.033 ± 0.0058 | 0.983 ± 0.025 | 1.03 ± 0.015 | 0.574 ± 0.06 | 1.027 ± 0.0058
COc1ccc(CCN(C)CCCC(C#N)(c2cc(OC)c(OC)c(OC)c2)C(C)C)cc1OC (racemic) [(±)-Methoxyverapamil hydrochloride] | 1.007 ± 0.0058 | 0.998 ± 0.039 | 1.01 ± 0.01 | 1.01 ± 0.019 | 0.9847 ± 0.0042 | 0.999 ± 0.018
CCCCOC(=O)NS(=O)(=O)c1sc(CC(C)C)cc1-c1ccc(Cn2c(CC)nc3c(C)cc(C)nc32)cc1 | 1.005 ± 0.0087 | 1.05 ± 0.021 | 1.007 ± 0.0058 | 1.01 ± 0.015 | 0.99 ± 0.006 | 1.01 ± 0.015
CO/N=C(\C(=O)N[C@@H]1C(=O)N2C(C(=O)O)=C(CSc3nc(=O)c(O)nn3C)CS[C@H]12)c1csc(N)n1 [Ceftriaxone sodium salt] | 0.985 ± 0.0052 | 0.995 ± 0.025 | 0.849 ± 0.22 | 0.992 ± 0.0057 | 0.964 ± 0.0069 | 0.9743 ± 0.006
Oc1ccccc1O [Pyrocatechol] | 1.027 ± 0.0058 | 1.03 ± 0.01 | 1.02 | 1 ± 0.025 | 1.02 ± 0.011 | 1.02 ± 0.01
COc1cc(OC)c2c(=O)[nH]c(-c3cc(C)c(OCCO)c(C)c3)nc2c1 | 0.979 ± 0.027 | 0.976 ± 0.068 | 0.958 ± 0.045 | 0.969 ± 0.021 | 0.9933 ± 0.0083 | 0.999 ± 0.0017
COc1cccc(NC(=O)/C=C/c2ccc(Cl)cc2)c1 | 0.953 ± 0.015 | 0.884 ± 0.026 | 0.992 ± 0.029 | 0.941 ± 0.023 | 0.9757 ± 0.0093 | 0.9683 ± 0.0067
CCCCN1CCC(COC(=O)c2cc(Cl)c(N)c3c2OCCO3)CC1 | 0.986 ± 0.012 | 0.933 ± 0.006 | 0.998 ± 0.029 | 0.945 ± 0.0035 | 0.9857 ± 0.0025 | 0.993 ± 0.006
NC(CCCP(=O)(O)O)C(=O)O (racemic) [(±)-2-Amino-5-phosphonopentanoic acid] | 0.987 ± 0.0072 | 0.9967 ± 0.0031 | 0.9907 ± 0.0083 | 0.993 ± 0.0028 | 0.98 ± 0.0056 | 0.9857 ± 0.0098
NCC(O)c1ccc(O)c(O)c1 (racemic) [(±)-Norepinephrine (+)bitartrate] | 0.98 ± 0.012 | 0.9907 ± 0.0029 | 0.987 ± 0.011 | 0.98 ± 0.021 | 0.985 ± 0.014 | 0.98267 ± 0.00058

SMILES | normalised cell viability [1] | normalised cell viability [2] | normalised cell viability [3] | normalised cell viability [4] | normalised cell viability [5] | normalised cell viability [6]
Cc1nc(NC(=O)N2CCC[C@H]2C(N)=O)sc1-c1csc(C(C)(C)C)n1 | 0.917 ± 0.015 | 0.732 ± 0.015 | 0.898 ± 0.022 | 0.746 ± 0.059 | 1.002 ± 0.0074 | 0.9607 ± 0.0086
C=CCN1CCc2cc(O)c(O)cc2C(c2ccccc2)C1 (racemic) | 0.9573 ± 0.0023 | 1 ± 0.017 | 1 ± 0.017 | 1 ± 0.018 | 0.9713 ± 0.0011 | 0.9797 ± 0.0046
O=C1CCC(c2ccc(-n3ccnc3)cc2)=NN1 [Imazodan] | 1.013 ± 0.0058 | 1.03 | 1.01 ± 0.01 | 1.03 ± 0.011 | 1.013 ± 0.0058 | 1.013 ± 0.0058
CCNC(=O)N1CCN(CCCC(c2ccc(F)cc2)c2ccc(F)cc2)CC1 [Amperozide hydrochloride] | 1.017 ± 0.0058 | 1.01 ± 0.012 | 1.017 ± 0.0058 | 1.02 ± 0.035 | 0.997 ± 0.012 | 1.007 ± 0.0058
Fc1ccc(C(OCCCc2cnc[nH]2)c2ccc(F)cc2)cc1 | 1.001 ± 0.009 | 0.993 ± 0.029 | 1.01 | 1.05 ± 0.075 | 0.985 ± 0.0062 | 1 ± 0.01
CNC(=O)c1cc2c(cn1)[nH]c1ccccc12 [N-Methyl-beta-carboline-3-carboxamide] | 0.9957 ± 0.0011 | 0.986 ± 0.025 | 1 ± 0.014 | 1 ± 0.0087 | 0.9893 ± 0.0042 | 0.986 ± 0.001
CC(C)(C)Cn1c(N)nc2ccc(-c3[nH]c(C(C)(C)C)nc3-c3ccc(F)cc3)nc21 | 0.67 ± 0.018 | 0.516 ± 0.024 | 0.675 ± 0.015 | 0.577 ± 0.01 | 0.939 ± 0.02 | 0.795 ± 0.023
OC[C@H]1O[C@H]([S-])[C@H](O)[C@@H](O)[C@@H]1O.[Au+] [Aurothioglucose] | 0.996 ± 0.0036 | 0.993 ± 0.032 | 1 ± 0.018 | 1.01 ± 0.083 | 1.003 ± 0.0058 | 1.01 ± 0.01
CCCN[C@H]1CCc2nc(N)sc2C1 [Pramipexole] | 0.995 ± 0.018 | 1 ± 0.0091 | 1.003 ± 0.0061 | 0.989 ± 0.037 | 0.9927 ± 0.006 | 0.999 ± 0.0017
CCC(=O)N1CCN(C(=O)c2ccccc2)CC1 | 1 | 0.995 ± 0.017 | 1 ± 0.014 | 0.995 ± 0.022 | 0.9923 ± 0.0068 | 0.998 ± 0.0027
CC(=O)c1ccc(S(=O)(=O)NC(=O)NC2CCCCC2)cc1 [Acetohexamide] | 0.984 ± 0.014 | 0.991 ± 0.0082 | 0.9927 ± 0.0071 | 0.976 ± 0.028 | 0.987 ± 0.0066 | 0.9673 ± 0.0068
CCSC(=N)N [S-Ethylisothiourea hydrobromide] | 1.01 ± 0.01 | 1.02 ± 0.01 | 1 ± 0.023 | 1.01 ± 0.022 | 0.985 ± 0.002 | 0.988 ± 0.0082
CNc1ncnc2c1ncn2[C@H]1C[C@H](OP(=O)(O)O)[C@@H](COP(=O)(O)O)O1 | 0.991 ± 0.0056 | 0.987 ± 0.029 | 1 ± 0.016 | 0.981 ± 0.027 | 0.996 ± 0.0061 | 0.9943 ± 0.0047
COc1ccc(CN(CCN(C)C)c2ccccn2)cc1 [Pyrilamine maleate] | 1.01 ± 0.016 | 0.988 ± 0.028 | 1.01 ± 0.011 | 1.06 ± 0.078 | 1.007 ± 0.0058 | 1.013 ± 0.0058
CCCNC(C)C(=O)Nc1ccccc1C (centres undefined) [Prilocaine hydrochloride] | 0.9977 ± 0.0025 | 1.01 ± 0.015 | 0.834 ± 0.3 | 0.991 ± 0.017 | 1.013 ± 0.0058 | 1.01 ± 0.011
CC(COc1ccccc1)N(CCCl)Cc1ccccc1 (centres undefined) [Phenoxybenzamine hydrochloride] | 1 ± 0.025 | 0.998 ± 0.021 | 1.01 ± 0.011 | 1.01 | 1.006 ± 0.0063 | 1.01
CC(COc1ccccc1)N(CCCl)Cc1ccccc1 (centres undefined) [Phenoxybenzamine HCl] | 1.01 ± 0.018 | 1.033 ± 0.0058 | 1.03 ± 0.025 | 1.05 ± 0.015 | 1.005 ± 0.0087 | 1.01
